Reference: publication PMC10163214, “E. coli allantoinase is activated by the downstream metabolic enzyme, glycerate kinase, and stabilizes the putative allantoin transporter by direct binding” (Scientific Reports, 2023)
Results are given in words; binding and its absence hold for the method and conditions named. Binding seen in cells or lysates may run through a third protein. Some entries that bind do so weakly or less than the wild type. Where a sequence is shown, tags or fusion partners need not be part of it.

T1: FLAG-tagged allantoinase AllB (AllB-Flag), expressed from the chromosomal allB gene under its native promoter (E. coli) (UniProt P77671)
T1 sequence: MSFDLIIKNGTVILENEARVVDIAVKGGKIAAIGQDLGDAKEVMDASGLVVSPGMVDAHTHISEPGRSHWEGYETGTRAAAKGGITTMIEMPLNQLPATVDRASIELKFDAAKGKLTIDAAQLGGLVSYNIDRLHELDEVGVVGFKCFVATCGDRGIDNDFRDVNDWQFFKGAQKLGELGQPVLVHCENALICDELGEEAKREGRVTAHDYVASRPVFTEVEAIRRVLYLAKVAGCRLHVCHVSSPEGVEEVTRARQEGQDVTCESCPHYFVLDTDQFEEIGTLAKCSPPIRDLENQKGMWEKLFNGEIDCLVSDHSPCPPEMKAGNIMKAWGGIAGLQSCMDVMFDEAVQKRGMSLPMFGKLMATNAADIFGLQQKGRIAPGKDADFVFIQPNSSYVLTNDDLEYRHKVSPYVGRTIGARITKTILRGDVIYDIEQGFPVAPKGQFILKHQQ


Tests used:
[1] = target: T1, FLAG-tagged allantoinase AllB (AllB-Flag), expressed from the chromosomal allB gene under its native promoter (E. coli); assay: co-IP; AllB-Flag precipitated with anti-FLAG magnetic beads (µMACS) from lysate of E. coli DY330; cells treated with 0.7 mM glyoxylate for 2 h; His-tagged prey detected by anti-His blot
[2] = target: T1, FLAG-tagged allantoinase AllB (AllB-Flag), expressed from the chromosomal allB gene under its native promoter (E. coli); assay: co-IP; AllB-Flag precipitated with anti-FLAG magnetic beads (µMACS) from lysate of E. coli DY330; untreated cells (no glyoxylate, no allantoin); His-tagged prey detected by anti-His blot
[3] = target: T1, FLAG-tagged allantoinase AllB (AllB-Flag), expressed from the chromosomal allB gene under its native promoter (E. coli); assay: condition: only cells treated with allantoin (2 mM) and not with glyoxylate; co-IP; AllB-Flag precipitated with anti-FLAG magnetic beads (µMACS) from lysate of E. coli DY330; cells treated with 2 mM allantoin for 2 h; His-tagged prey detected by anti-His blot
[4] = target: T1, FLAG-tagged allantoinase AllB (AllB-Flag), expressed from the chromosomal allB gene under its native promoter (E. coli); assay: condition: only cells treated with neither glyoxylate nor allantoin; co-IP; AllB-Flag precipitated with anti-FLAG magnetic beads (µMACS) from lysate of E. coli DY330; untreated cells (no glyoxylate, no allantoin); His-tagged prey detected by anti-His blot
[5] = target: T1, FLAG-tagged allantoinase AllB (AllB-Flag), expressed from the chromosomal allB gene under its native promoter (E. coli); assay: co-IP; AllB-Flag precipitated with anti-FLAG magnetic beads (µMACS) from lysate of E. coli DY330; cells treated with 2 mM allantoin for 2 h; His-tagged prey detected by anti-His blot

| binding [1] | binding [3] | binding [4] | binding [5] | Binder | binding [2] |
| --- | --- | --- | --- | --- | --- |
| binds | no binding | – | – | His6-tagged putative allantoin transporter YbbW, renamed AllW (AllW-His6) (protein, UniProt P75712 1-484) MEHQRKLFQQRGYSEDLLPKTQSQRTWKTFNYFTLWMGSVHNVPNYVMVGGFFILGLSTFSIMLAIILSAFFIAAVMVLNGAAGSKYGVPFAMILRASYGVRGALFPGLLRGGIAAIMWFGLQCYAGSLACLILIGKIWPGFLTLGGDFTLLGLSLPGLITFLIFWLVNVGIGFGGGKVLNKFTAILNPCIYIVFGGMAIWAISLVGIGPIFDYIPSGIQKAENGGFLFLVVINAVVAVWAAPAVSASDFTQNAHSFREQALGQTLGLVVAYILFAVAGVCIIAGASIHYGADTWNVLDIVQRWDSLFASFFAVLVILMTTISTNATGNIIPAGYQIAAIAPTKLTYKNGVLIASIISLLICPWKLMENQDSIYLFLDIIGGMLGPVIGVMMAHYFVVMRGQINLDELYTAPGDYKYYDNGFNLTAFSVTLVAVILSLGGKFIHFMEPLSRVSWFVGVIVAFAAYALLKKRTTAEKTGEQKTIG | no binding (condition: cells not treated with glyoxylate) |
| binds | – | no binding | binds | His-tagged glycerate 2-kinase GlxK overproduced from the ASKA collection (GlxK-His) (enzyme, UniProt P77364 1-381) MKIVIAPDSFKESLSAEKCCQAIKAGFSTLFPDANYICLPIADGGEGTVDAMVAATGGNIVTLEVCGPMGEKVNAFYGLTGDGKTAVIEMAAASGLMLVAPEKRNPLLASSFGTGELIRHALDNDIRHIILGIGGSATVDGGMGMAQALGVRFLDADGQALAANGGNLARVASIEMDECDPRLANCHIEVACDVDNPLVGARGAAAVFGPQKGATPEMVEELEQGLQNYARVLQQQTEINVCQMAGGGAAGGMGIAAAVFLNADIKPGIEIVLNAVNLAQAVQGAALVITGEGRIDSQTAGGKAPLGVASVAKQFNVPVIGIAGVLGDGVEVVHQYGIDAVFSILPRLAPLAEVLASGETNLFNSARNIACAIKIGQGIKN | – |
